The list shows a part of the results. Values were computed here from the reads of four pooled replicates and scatter widely.
biological target: T1, Pho4 (S. cerevisiae) (UniProt P07270); test: relative binding free energy (BET-seq); higher = weaker binding; conditions: reference: library average
T1 sequence: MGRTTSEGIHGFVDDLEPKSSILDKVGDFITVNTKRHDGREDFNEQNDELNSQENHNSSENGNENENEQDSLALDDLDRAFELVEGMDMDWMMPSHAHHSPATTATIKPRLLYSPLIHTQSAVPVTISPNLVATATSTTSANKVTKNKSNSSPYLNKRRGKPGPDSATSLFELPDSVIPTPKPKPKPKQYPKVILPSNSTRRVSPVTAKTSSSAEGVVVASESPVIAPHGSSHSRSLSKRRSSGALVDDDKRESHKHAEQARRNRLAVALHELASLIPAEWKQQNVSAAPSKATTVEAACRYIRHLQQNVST

Sequence	relative binding free energy [kcal/mol]
ACGGCCACGTGGTGGG	-0.27
GCCTTCACGTGGGGGT	0.19
GCATGCACGTGGATGT	-0.03
GAAGACACGTGGTATG	-0.02
GGTAGCACGTGTCTAT	0.01
GTAATCACGTGCCGTG	0.18
CTGTGCACGTGATTTA	0.02
TATATCACGTGATGTC	0.31
AGTTGCACGTGTGACG	-0.01
GTGGACACGTGGGCGA	-0.13
ATTACCACGTGGTGGG	-0.15
AGGGCCACGTGTAGGT	-0.01
TGAGTCACGTGTGATT	0.11
ATGAGCACGTGGTCGG	-0.34
TTGGACACGTGTTTGT	0
GGCTGCACGTGGATAG	-0.07
TGTTGCACGTGGTCGT	-0.11
GTGGCCACGTGGGGTT	-0.23
TTGGCCACGTGATGCG	0.01
AAGTACACGTGATGGT	0.2
TAGTGCACGTGTGATA	-0.04
CCTGGCACGTGAAGTT	0.24
CAAATCACGTGAGGGG	0.29
TGTATCACGTGGAGCT	0.11
CAGTGCACGTGACGTG	0.2

Sequence	relative binding free energy [kcal/mol]
TGGGTCACGTGACAGA	0.29
TGGAGCACGTGCAGTG	0.02
GGGTTCACGTGTTTGG	0.37
TTCAGCACGTGGGTTC	-0.13
ATATCCACGTGGTTGT	-0.07
TGGTTCACGTGCTATC	0.32
TTGCACACGTGTAGGT	0.02
ATACGCACGTGCGGGT	-0.15
CTTACCACGTGTTTGG	0.12
GGTGTCACGTGATCGT	0.09
GTAGACACGTGATGAG	0.05
GAATACACGTGGTTGT	0.06
AAAGCCACGTGTGTTG	-0.03
CCATGCACGTGTGGGG	0.02
GTAGTCACGTGGGTTG	0.02
TTGTGCACGTGGTAGC	-0.06
GGCGTCACGTGTAGTG	0.2
GAGTTCACGTGGCTTT	0.36
GTTACCACGTGTGATG	0.14
GTTCGCACGTGTTGTA	-0.02
TTATTCACGTGAGACT	0.51
ATGCTCACGTGAGATG	0.37
AAGATCACGTGGTTTT	0.18
TTATTCACGTGTTATG	0.22
CGATTCACGTGGCTGG	0.24

Sequence	relative binding free energy [kcal/mol]
GACGTCACGTGGTTGT	0.14
GTGGGCACGTGACTGA	0.05
GAGGACACGTGTGAGA	0.31
GTACGCACGTGTCTGT	0.01
CGCTGCACGTGCGGGG	-0.04
GGCGGCACGTGAAAGG	0.3
TTGTACACGTGGGTAT	0.01
GAATACACGTGTGGTT	0.12
TCTTTCACGTGTTTAT	0.27
GTTAGCACGTGGCTGA	0.04
CGCGGCACGTGTCGTG	-0.09
CTGAGCACGTGTTGGC	-0.06
CGTGGCACGTGGTTTC	-0.21
GGGGGCACGTGAAGGA	0.19
TTAGACACGTGTAGTG	0.06
CTATTCACGTGTTTTA	0.15
CGGGTCACGTGTCGTA	0.1
GCGTACACGTGGTTTT	0.23
TCTGACACGTGGGGTA	-0.15
CGGTTCACGTGTGCTG	0.38
GTATCCACGTGTTAGT	0.11
TATGTCACGTGGTGCC	0
TTTCACACGTGTTTGC	0.13
TGGGTCACGTGCGCGC	0.03
CGATTCACGTGTGGGC	0.29

Sequence	relative binding free energy [kcal/mol]
AGCTACACGTGTGTTG	0.04
TTACTCACGTGTGCGG	0.14
GAGGACACGTGTGGTT	0.12
GGATGCACGTGGGTAA	-0.07
TCTGGCACGTGTGGGT	-0.04
GCGGACACGTGAAGTG	0.34
CTCTTCACGTGGAGGT	0.26
GTGCGCACGTGGAGTG	0
AAGCTCACGTGATGTT	0.44
GGATTCACGTGAGGCT	0.41
TGGTTCACGTGTAAGG	0.45
GGGTCCACGTGTTGAG	0.09
TTAGACACGTGTTAAT	0.01
TTCAGCACGTGGTAAT	-0.02
AGGTGCACGTGCGAGG	-0.04
GATCGCACGTGGTTTG	-0.01
CGTGTCACGTGTGTAA	0.04
GTGGCCACGTGTGTGT	-0.03
AGTCTCACGTGTGTTA	0.04
TTAGTCACGTGGAAGG	0.11
ACGGTCACGTGTGTGA	0.12
AATGTCACGTGTATCG	0.21
CTCGTCACGTGATGGT	0.09
CTTGTCACGTGGACGG	-0.01
TCTTTCACGTGTGAGT	0.22

Sequence	relative binding free energy [kcal/mol]
TGTGTCACGTGCTTAA	0.16
ATGTACACGTGGATTA	0.03
AGAGTCACGTGTGTGC	0.1
TAAGTCACGTGTTTTG	0.1
AATTGCACGTGGATAG	-0.07
AATTGCACGTGTTCGT	-0.02
GTATTCACGTGTATGG	0.21
AATGGCACGTGGAATT	0.06
TTGTTCACGTGAACGG	0.4
AGTACCACGTGGGTGG	-0.18
GCCTGCACGTGTGTTG	0.03
TGGACCACGTGGGGGA	-0.28
TTCTTCACGTGGGAGT	0.29
TGTTGCACGTGCCTGG	-0.02
AAGTGCACGTGTATTG	0
GGAAGCACGTGTATTG	-0.14
GTGGCCACGTGAGTGG	0.29
GTGATCACGTGATGGA	0.4
GAGGACACGTGATGGT	0.22
TCGATCACGTGTAGGG	0.2
CGGTGCACGTGGGTGA	-0.17
ATGGGCACGTGTGATT	-0.04
CCAGGCACGTGTGGTG	-0.01
TTTCGCACGTGTTGAA	0.05
AGGGGCACGTGGGAGC	-0.19

Sequence	relative binding free energy [kcal/mol]
ATGGTCACGTGGCCGG	0
TGTGTCACGTGAGGAC	0.22
GTCAGCACGTGGCGTT	0
TGAGGCACGTGGCTTT	-0.2
GAGCGCACGTGTAAGG	0.14
CTTTTCACGTGATTAA	0.29
GATTGCACGTGAATGT	0.11
AGGGGCACGTGCTGTA	-0.17
TTAATCACGTGTTTAA	-0.03
AGGTTCACGTGGCGGA	0.22
CGGTTCACGTGTGTGT	0.37
TGAGGCACGTGCTAGG	-0.19
GGTTGCACGTGTTGTA	0.12
ATATACACGTGTTTGG	-0.08
GATGTCACGTGTTGGT	0.19
GTAAGCACGTGTTGTC	0.11
ATTTTCACGTGAGCGA	0.4
GGCTACACGTGGTATG	0.13
GATATCACGTGAGGTT	0.45
GGTACCACGTGGTTTG	-0.09
ATGTGCACGTGGGGGG	-0.14
